Data reported in PubChem BioAssay AID686978 (National Center for Advancing Translational Sciences (NCATS), 2013).
The whole screen tested about 420,000 compounds, of which about 64,000 (15%) were called active. The inconclusive results got no clear call from the source; some entries with a clear call stand among them for comparison. The call rests on the fitted dose curve; in most records, active means well fitted inhibition curve with a large enough effect; inconclusive means small, poorly fitted or top-dose-only effect; inactive means flat fitted curve, though single readings scatter. No potency is given beside an inconclusive call; the fits are too rough.

Assay: qHTS for Inhibitors of human tyrosyl-DNA phosphodiesterase 1 (TDP1): qHTS in cells in absence of CPT; further: nearly all actives have a fitted effect of over 55% in size
Details: DT40 Tdp1-/- hTDP1 cells, no CPT, ATP luminescence, 48 h; activity change, negative = growth inhibition: at 46.2 µM (top of the series) unless noted
In short: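 Compound effects on proliferation are scored in DT40 Tdp1-/-;hTDP1 cells in the absence of CPT. ATP levels (CellTiter-Glo luminescence) are recorded after a ≥48 hr, 37 °C incubation.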
On the % scale 0 is the no-effect control and ±100 the full control effect; potency means the concentration at half of the fitted maximal effect; tags describe the fitted curve by direction and shape.

Which Potency does the source give for `Fc1cccc2sc(Nc3nc4c(F)cccc4s3)nc12` here?
Its Potency is active: 13 µM.

Which Potency does the source give for `O=C(NN1CCCCC1)c1cccc(COc2ccc(Cl)cc2)c1` here?
Its Potency is inconclusive [inhibitor, single point].

With `COc1ccccc1NC(=S)NC(=O)/C=C/c1cccs1` as the molecule, how does the Potency read?
Its Potency is inconclusive [inhibitor, single point].

For `O=C(CSc1nc2cc(C(F)(F)F)ccc2n1Cc1ccccc1)NC1CCS(=O)(=O)C1` (stereo unspecified), which Potency is on record?
Its Potency is inconclusive [inhibitor, partial curve].

With `CN(C)c1ccc(/C=C/c2nc(-c3ccccc3O)n(-c3ccccc3)n2)cc1` as the molecule, how does the Potency read?
Its Potency is inconclusive [inhibitor, single point].

For `Cc1c(Cl)cccc1NC(=S)NCC(C)C`, which Potency is on record?
The Potency was inconclusive [inhibitor, single point].

With `O=C(Nc1cccc(-c2nc3ncccc3o2)c1)c1ccco1` as the molecule, how does the “activity change, negative = growth inhibition” value read?
The value was inactive: -25.7%.

Which “activity change, negative = growth inhibition” value does the source give for `Cc1cc(C)c(NC(=O)CS(=O)CC(=O)Nc2cccnc2)c(C)c1` (stereo unspecified) here?
The value was inactive: 0.606%.

With `O=C(NC1CC1)c1ccc2nc(-c3ccco3)c(-c3ccco3)nc2c1` as the molecule, how does the Potency read?
Its Potency is active: 12.6 µM.

For `Cc1ccc(C(=O)COC(=O)c2ccncc2)cc1[N+](=O)[O-]`, which activity change, negative = growth inhibition is on record?
The activity change, negative = growth inhibition was inconclusive: -31% [inhibitor].

Which Potency does the source give for `CC(C)(C)c1ccc(OCCCC(=O)NNC(=O)c2ccccc2O)cc1` here?
Its Potency is active: 18.4 µM.

For `O=C(NCC(=O)N1CCN(S(=O)(=O)c2ccccc2C(F)(F)F)CC1)c1sc2ccccc2c1Cl`, which Potency is on record?
The Potency was active: 11.6 µM.

For `O=C(NCCN1CCCCC1)Nc1cccc(F)c1`, which “activity change, negative = growth inhibition” value is on record?
Its value is inactive: -0.869%.

For `NC(=O)c1ccccc1N/C=C/C(=O)c1ccc(Cl)cc1`, which activity change, negative = growth inhibition is on record?
The activity change, negative = growth inhibition was inconclusive: -32.2% [inhibitor].

For `CC(C)CCNC(=O)CN1C(=O)CSc2ccc(S(=O)(=O)N3CCC(C)CC3)cc21`, which Potency is on record?
The Potency was inconclusive [inhibitor, single point].

Which “activity change, negative = growth inhibition” value does the source give for `Cc1ccc(C(=O)NC(=S)N2CCCCCC2)cc1` here?
The value was inactive: -1.61%.

For `CCOc1ccc(OCc2ccc(C(=O)NN=Cc3ccc[nH]3)cc2)cc1`, which “activity change, negative = growth inhibition” value is on record?
The value was inactive: -11.4%.

Which Potency does the source give for `CC(C(=O)N1CCc2ccccc21)N1CCN(S(=O)(=O)c2cccs2)CC1` (stereo unspecified) here?
Its Potency is inconclusive [inhibitor, single point].

Which Potency does the source give for `CCOC(=O)C1=CCN(S(=O)(=O)c2ccccc2F)C1c1cccc(F)c1` (stereo unspecified) here?
Its Potency is inconclusive [inhibitor, single point].

With `CCOC(=O)C1CCCN(c2nc3c(S(=O)(=O)c4ccc(CC)cc4)nnn3c3ccsc23)C1` (stereo unspecified) as the molecule, how does the Potency read?
The Potency was inconclusive [inhibitor, single point].

With `Cc1ccc(C)c(NC(=S)N2CCN(S(C)(=O)=O)CC2)c1` as the molecule, how does the “activity change, negative = growth inhibition” value read?
Its value is inactive: 14.3%.
